What all share (assay): cell count relative to DMSO control; melanoma cells; higher = more viable cells
Common to all, as to details: library dose: low library concentration; 72 h

Experiment [1] relates to MZ2-MEL.
The subject of experiment [2] is MeWo.
The subject of experiment [3] is RPMI7951.
The subject of experiment [4] is RVH-421.
Experiment [5] relates to SkMel28.
In experiment [6] the test system is SkMel2.
Experiment [7] concerns SkMel30.
Experiment [8] deals with SkMel5.
For experiment [9], the system named is UACC257.
Experiment [10] concerns UACC62.
In experiment [11] the test system is WM115.
The test system of experiment [12] is WM1716.
Experiment [13] has as its system WM1745.
For experiment [14], the system named is WM3526.
Experiment [15] concerns WM3619.
Experiment [16] concerns WM451Lu.

Structures are written as SMILES. Some of the results follow. Single values are uncertain, as repeats are few or missing.
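Note: cell number obtained by counting DAPI-stained nuclei in high-throughput microscope images with image analysis software, screen run in 1,536-well plates.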

Consider `NC(=O)c1ccc(N(C(N)=O)c2c(F)cccc2F)nc1-c1ccc(F)cc1F` + COc1cc2c(Oc3ccc4[nH]c(C)cc4c3F)ncnc2cc1OCCCN1CCCC1 [cediranib] (first compound 0.4 µM, partner dose 0.4 µM), for which the cell count in experiment [1] is 103%; in experiment [2], 101%; in [3], 96.2%; in experiment [4], 106%; in [5] it was 111%; in [6], 113%. The cell count in experiment [7] is 87.3%; in experiment [8], 105%; in [9] it was 90.8%; in experiment [10], 91.3%; in experiment [11], 108%; in experiment [12], 109%. In addition, the cell count in [13] turned out to be 81.5%; in [14], 92.2%; in experiment [15] it was 98.3%; in experiment [16] it was 106%.
On to `NC(=O)c1ccc(N(C(N)=O)c2c(F)cccc2F)nc1-c1ccc(F)cc1F` + Cc1cc(N2CCOCC2)cc2[nH]c(-c3c(NC[C@@H](O)c4cccc(Cl)c4)cc[nH]c3=O)nc12 [BMS536924] (first compound 0.4 µM, partner dose 0.2 µM), for which the cell count was determined as 105% in experiment [1]; 87% in experiment [2]; 120% in experiment [3]; 106% in [4]; 87.6% in [5]; 98% in [6]. For the same compound, the cell count amounted to 54% in experiment [7]; 102% in experiment [8]; 83.1% in [9]; 77.6% in experiment [10]; 120% in experiment [11]; 109% in [12]. Further, the cell count turned out to be 68.9% in [13], 105% in experiment [14], 59.4% in [15] and 97.3% in experiment [16].
On to `CCCCCCCCc1ccc(CCC(N)(CO)CO)cc1` [fingolimod] + O=C1NC(=O)/C(=C/c2ccc(-c3ccc(F)cc3O)o2)S1 [AS252424] (first compound 2 µM, partner dose 1 µM), for which the cell count in [1] turned out to be 96.8%; in experiment [2], 97%; in [3], 83.8%; in experiment [4] it was 83.8%; in [5], 75.3%; in experiment [6], 87.1%. Further, the cell count in experiment [7] came out at 90.2%; in experiment [8] it was 95%; in experiment [9] it was 78.7%; in experiment [10], 89.6%; in experiment [11], 83.8%; in experiment [12] it was 91.3%. The cell count in experiment [13] came to 65.4%; in experiment [14], 84.2%; in experiment [15] it was 89.7%; in experiment [16] it was 104%.
As to `NC(=O)c1ccc(N(C(N)=O)c2c(F)cccc2F)nc1-c1ccc(F)cc1F` + O=c1cc(-c2cccc3c2Sc2ccccc2S3)oc(N2CCOCC2)c1 [KU55933] (first compound 0.4 µM, partner dose 1 µM), the cell count was 100% in [1]; 91.9% in [2]; 94.4% in experiment [3]; 94.6% in experiment [4]; 103% in experiment [5]; 103% in [6]. Moreover, the cell count in [7] amounted to 92.7%; in [8], 111%; in experiment [9], 105%; in [10], 93.7%; in experiment [11] it was 87.8%; in [12] it was 109%. The cell count in experiment [13] turned out to be 113%; in [14], 76.5%; in experiment [15] it was 104%; in experiment [16], 99.4%.
Take `CC(C)(C)c1cnc(CSc2cnc(NC(=O)C3CCNCC3)s2)o1` + O=C(Nc1cccc(Cl)c1)Nc1ncc(CCNc2ncnc3ccsc23)s1 [SNS314] (first compound 0.01 µM, partner dose 0.0008 µM): the cell count in experiment [1] turned out to be 97%; in [2], 100%; in [3], 86.7%; in experiment [4], 97.1%; in experiment [5], 105%; in [6], 97%. The cell count in experiment [7] is 90.8%; in experiment [8], 103%; in experiment [9], 68.6%; in experiment [10] it was 82.4%; in experiment [11] it was 101%; in experiment [12] it was 106%. In addition, the cell count in [13] amounted to 72.9%; in experiment [14], 86.1%; in [15] it was 102%; in experiment [16] it was 87.2%.

Source of the values: the supplement of paper PMC4604168 (melanoma cell lines).
